{"source": "PubChem BioAssay AID686978", "about": "(National Center for Advancing Translational Sciences (NCATS), 2013)", "note": "Screen size: about 420,000 compounds; about 64,000 (15%) were called active. This list was built around the results that the source calls inconclusive (neither active nor inactive); the mix of calls is not that of the screen. The call rests on the fitted dose curve; in most records, active means well fitted inhibition curve with a large enough effect; inconclusive means small, poorly fitted or top-dose-only effect; inactive means flat fitted curve, though single readings scatter. Potencies of inconclusive entries are left out as doubtful fits. On the % scale 0 is the no-effect control and ±100 the full control effect; potency means the concentration at half of the fitted maximal effect; tags describe the fitted curve by direction and shape."}
{"assay": "qHTS for Inhibitors of human tyrosyl-DNA phosphodiesterase 1 (TDP1): qHTS in cells in absence of CPT; further: nearly all actives have a fitted effect of over 55% in size", "settings": "DT40 Tdp1-/- hTDP1 cells, no CPT, ATP luminescence, 48 h; activity change, negative = growth inhibition: at 46.2 µM (top of the series) unless noted", "method_in_brief": "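Camptothecin absent (DMSO only). Human TDP1-complemented DT40 knockout cells, 400 cells/well, 37 °C for minimum 48 hr; ATP measured via CellTiter-Glo, 30 min dark incubation, luminescence.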"}
{"smiles": "COc1ccc(CC(=O)OCC(=O)NC2CCCC(C)C2C)cc1", "note": "(stereo unspecified)", "Potency": "inactive"}
{"smiles": "COc1ccc(CN2C(=O)C(CC(=O)NCC3CCCCC3)CC(C(=O)N3CCOCC3)=C2C)cc1", "note": "(stereo unspecified)", "Potency": "inactive"}
{"smiles": "COCc1c(C(=O)N2CCN(c3ccccc3O)CC2)cnn1-c1nccc(-c2cccs2)n1", "Potency": "inconclusive [inhibitor, partial curve]"}
{"smiles": "CCC(NC(=O)CC[C@H]1O[C@@H](n2cc(C)c(=O)[nH]c2=O)C[C@@H]1O)c1ccccc1", "note": "(stereo partly specified)", "Potency": "inactive"}
{"smiles": "CCOc1ccccc1C1CC(=O)NC(C)=C1C(=O)OC1CCCCCC1", "note": "(stereo unspecified)", "Potency": "active: 16.4 µM"}
{"smiles": "COc1ccc(S(=O)(=O)Cc2ccc(C(=O)N3CCN(c4ccccc4)CC3)o2)cc1", "Potency": "inactive"}
{"smiles": "COC(=O)c1ccc(/C=C2\\Oc3ccccc3NC2=O)cc1", "Potency": "inactive"}
{"smiles": "COc1ccc(NC(=O)C2CCCN(S(=O)(=O)c3cn(C)cn3)C2)cc1Cl", "note": "(stereo unspecified)", "Potency": "inactive"}
{"smiles": "O=C(NCc1cccc(C(F)(F)F)c1)c1ccc2sc([C@@H]3O[C@H](CO)[C@@H](O)[C@H]3O)nc2c1", "Potency": "inconclusive [inhibitor, single point]"}
{"smiles": "CS(=O)(=O)Nc1cccc(C(=O)OCCCOc2ccc(F)cc2)c1", "Potency": "inactive"}
{"smiles": "O=C(COc1cccc(F)c1)Nc1nc(-c2cccnc2)cs1", "Potency": "inconclusive [inhibitor, single point]"}
{"smiles": "Cc1cccc(Oc2nc3ccccn3c(=O)c2/C=C(\\C#N)c2nc3ccccc3s2)c1C", "Potency": "active: 4.61 µM"}
{"smiles": "O=C(CSc1nc2ccccc2nc1Cc1ccc(F)cc1)Nc1ccc2c(c1)OCO2", "Potency": "inconclusive [inhibitor, single point]"}
{"smiles": "COCCNC(=O)Cn1c(=O)n(Cc2ccc(C(=O)NCCc3ccc(OC)c(OC)c3)cc2)c(=O)c2ccccc21", "Potency": "inconclusive [inhibitor, partial curve]"}
{"smiles": "OC(c1ccc(F)cc1)c1nc(-c2ccc(F)c(Cl)c2)cs1", "note": "(stereo unspecified)", "Potency": "inconclusive [inhibitor, single point]"}
{"smiles": "CC1=C(C(=O)Nc2ccccc2)C(c2ccncc2)n2nnnc2N1", "note": "(stereo unspecified)", "activity change, negative = growth inhibition": "inconclusive: -30.4% [inhibitor]"}
{"smiles": "CC(O)C(NC(=O)OCc1ccccc1)C(=O)NCC(=O)NCC(=O)OCc1ccccc1", "note": "(stereo unspecified)", "Potency": "inactive"}
{"smiles": "Cc1ccc(NC(=O)CSc2nccn2C2CCCC2)cc1", "Potency": "inconclusive [inhibitor, single point]"}
{"smiles": "O=C(Nc1ccc(F)cc1)Nc1nnc(COc2ccccc2F)s1", "Potency": "active: 16.4 µM"}
{"smiles": "COc1nc(N)nc(NC(=O)c2cccs2)c1N=O", "Potency": "active: 2.31 µM"}
{"smiles": "O=C(CN1CCN(Cc2ccc(F)cc2)CC1)Nc1nc2ccccc2s1", "Potency": "active: 25.9 µM"}
